# Experimental data taken from PMC10668032.
# The list shows a part of the results. At the low end of the ranking the order means little.
# Biological target: SIX1-Q177R homeodomain (UniProt Q15475)
# Assay: universal protein binding microarray
# Details: Universal all-10-mer PBM (8x60K, AMADID 030236), 300 nM GST-tagged protein, Alexa Fluor 488 anti-GST; buffer, salt, pH and temperature not stated; high values mean tight binding; most listed sequences are background and not binding sites; double strand, one strand shown
row,Sequence,binding signal [E-score]
1,ATAGGGAC,-0.0211
2,GAGAAGTA,-0.103
3,ATAATTAG,-0.00722
4,CCGAGACC,0.0743
5,ACGGTTCG,-0.146
6,GAGTGTGA,0.29
7,GGGTAGTA,0.161
8,TGTATAAA,0.107
9,ACCGCTTA,0.00813
10,ATGCACAA,-0.134
11,TGAGATCA,-0.102
12,CATCCTGC,-0.242
13,AAGAGGGT,0.0738
14,ATATTCAG,0.00456
15,CAATCAAG,-0.203
16,AATCAGAT,0.0332
17,ACACCTAA,0.445
18,TAAGGTGA,-0.18
19,CAAGTGCC,-0.166
20,ACCACGCT,-0.00512
21,GGTGGGAA,0.125
22,CATTAAGC,-0.183
23,ATCACATG,-0.148
24,AATCGCCA,-0.216
25,AAACACAA,-0.0653

row,Sequence,binding signal [E-score]
1,GCCCCCAA,-0.0513
2,CGTGTGCC,0.168
3,CCGCCGAA,0.0532
4,ACCCCGCT,0.209
5,ATGCGTGA,-0.136
6,ATGAAGTG,0.0483
7,CCAAGTAA,0.0411
8,ATATACAA,-0.0547
9,AGATTAAA,-0.198
10,CCTTTTAC,0.0251
11,ACACGTCC,0.373
12,ATTACCTG,-0.305
13,AACCCATT,-0.103
14,ACGTACGT,-0.0962
15,CGGATCGC,0.00988
16,ATTTCCGC,-0.117
17,CGTCTCCA,-0.00369
18,ACGCTGTC,-0.0679
19,ACCATACG,0.137
20,CCGCCAAG,-0.137
21,AACCCATG,-0.00656
22,CGCGGATC,0.135
23,CCATTGGC,-0.1
24,CTCAGTTA,-0.173
25,ACCGTGCA,0.142

row,Sequence,binding signal [E-score]
1,AGAAAGCA,-0.107
2,CCGTTGCC,-0.0434
3,GAATTGAC,0.053
4,GCCGTTTA,0.0221
5,CCGGACAC,0.427
6,GAAGGCAA,-0.222
7,CTAGGTTC,0.0376
8,CGTAAGAA,-0.151
9,CCTGTATC,-0.0356
10,CAGCTATC,-0.128
11,TGTGTCAA,0.303
12,AGTCGATG,-0.213
13,CGAATGCA,0.00535
14,CCGTTGAA,-0.1
15,AGCTAAAA,-0.168
16,GTGCAGTA,0.021
17,TGTAGACA,0.257
18,AACACAGT,0.158
19,ACATCCTA,-0.152
20,TAATGATA,-0.0829
21,GCGATAAA,-0.103
22,CAGCCTGG,0.106
23,AATACGTG,0.151
24,TGGGTGAA,-0.0462
25,AATCATGC,-0.0292

row,Sequence,binding signal [E-score]
1,ATCTCACG,-0.18
2,ACACGCGT,0.402
3,CCCTAGAA,0.0766
4,GAGCTCGA,-0.136
5,CCTTACCC,0.145
6,ATCGATCG,0.0913
7,CGGTAACC,0.03
8,AGACAAAG,-0.108
9,AGTTTAAA,0.124
10,ACCGCCCG,0.114
11,GCCGCCTA,-0.118
12,GGTGTTCA,0.461
13,CGAGGAAC,0.197
14,ATAGACAC,0.428
15,GGTACAAC,0.0647
16,GTAATAGA,-0.083
17,CTACGAAA,-0.102
18,AGTTATTG,-0.0356
19,GACAGAAC,-0.0609
20,CCTCATAA,0.0335
21,GTCTAGTA,-0.0361
22,CGACCAAC,0.0349
23,AAAGCTCC,0.0235
24,AGCGTGCG,-0.0239
25,CCGAGTGA,0.156

row,Sequence,binding signal [E-score]
1,CCCTATGA,-0.022
2,CGGTCTAA,-0.13
3,CTAGCGCC,-0.223
4,CTGCGAAA,-0.254
5,ACTTTACT,-0.0868
6,AGTATTAT,0.0493
7,AATACGCG,-0.0794
8,ACCGTCCT,-0.0247
9,TCCTGTCA,-0.159
10,ACATTCCG,0.0206
11,ATAACCCA,-0.00351
12,CTCGAAAG,-0.0828
13,CCATACAA,-0.123
14,GTGAGGTA,-0.0122
15,ATGTAGGC,-0.286
16,AACCCTGA,0.0374
17,ATAACAGC,-0.0593
18,CTTCCGAC,0.147
19,CACAACTC,0.0689
20,CCTCGACA,0.218
21,ATGTACGC,0.00258
22,AGCACACT,0.163
23,ACCTTTAA,-0.114
24,ATCGTTAA,-0.113
25,GCTCAACA,-0.00843

row,Sequence,binding signal [E-score]
1,ACACGAAC,0.343
2,GATGATCC,0.0505
3,AAAGAGTG,0.186
4,CGCCAGAG,-0.0103
5,TTAGCCAA,-0.179
6,CTTGTTTA,-0.176
7,CTCACAAG,0.147
8,GTCACTCA,0.0515
9,AAAAGTAC,-0.28
10,TTGATCAA,-0.0492
11,CCCTACTA,0.081
12,ACTCCGCT,0.185
13,GCAATCAA,-0.318
14,GGCTTAAA,-0.201
15,TGGTACCA,-0.173
16,GAAGACAA,-0.0398
17,AGCCCAGC,-0.23
18,GTACGGAC,-0.0307
19,CCGAGTAA,-0.0131
20,AGGTTTCC,-0.139
21,CAAGGTTA,-0.0535
22,AGCCGGTG,0.282
23,ACGGGGAT,0.109
24,ATCTCTCC,-0.193
25,CGTGATAC,0.248

row,Sequence,binding signal [E-score]
1,ATCCACCG,0.0993
2,CCACTCAA,0.00995
3,GAAGAGTC,0.0321
4,GGCTGTGA,-0.0976
5,ATCGGCCC,-0.0955
6,GAGAAGGC,-0.327
7,AGACTGAG,-0.295
8,GACCTACA,0.021
9,CAAATGCC,-0.3
10,ACCGCAGG,0.0897
11,AACTATTG,-0.0834
12,AATCGTAC,-0.135
13,CGCTTCTA,0.0576
14,GCATCCAC,-0.119
15,CTATGGAA,-0.0151
16,CCCCTATC,0.0701
17,CCGTAAGC,-0.0363
18,CAACTGAA,-0.119
19,ACAGAGTA,0.095
20,CATGAGTC,-0.122
21,TGCACTAA,-0.0169
22,ATGACCCC,0.318
